# Experimental data as given in PubChem BioAssay AID488969 (Vanderbilt High Throughput Screening Facility, 2010).
# Where “and” joins values, the source holds several entries; their conditions need not be identical. Equal entries are not always repeated. The full ranking holds about 110,000 compounds; the median of “z-score” is about -0.1, and the highest 2% start at about 2. This is one part of the list.
# Target: Metabotropic glutamate receptor 8 (Rattus norvegicus) (UniProt P70579)
# Assay: mGluR8 Gi/Go-coupled signaling modulation – cell-based, rat, thallium flux, HTS, primary screen (AID 488969)
# Conditions: HEK293 rat mGluR8, GIRK (G protein-gated inwardly rectifying potassium channel) thallium flux, FluoZin2; at 10 µM; stronger effect = higher value; submaximal glutamate (EC20) added with thallium
# Sequence of UniProt P70579 (P70579 whole entry, looked up): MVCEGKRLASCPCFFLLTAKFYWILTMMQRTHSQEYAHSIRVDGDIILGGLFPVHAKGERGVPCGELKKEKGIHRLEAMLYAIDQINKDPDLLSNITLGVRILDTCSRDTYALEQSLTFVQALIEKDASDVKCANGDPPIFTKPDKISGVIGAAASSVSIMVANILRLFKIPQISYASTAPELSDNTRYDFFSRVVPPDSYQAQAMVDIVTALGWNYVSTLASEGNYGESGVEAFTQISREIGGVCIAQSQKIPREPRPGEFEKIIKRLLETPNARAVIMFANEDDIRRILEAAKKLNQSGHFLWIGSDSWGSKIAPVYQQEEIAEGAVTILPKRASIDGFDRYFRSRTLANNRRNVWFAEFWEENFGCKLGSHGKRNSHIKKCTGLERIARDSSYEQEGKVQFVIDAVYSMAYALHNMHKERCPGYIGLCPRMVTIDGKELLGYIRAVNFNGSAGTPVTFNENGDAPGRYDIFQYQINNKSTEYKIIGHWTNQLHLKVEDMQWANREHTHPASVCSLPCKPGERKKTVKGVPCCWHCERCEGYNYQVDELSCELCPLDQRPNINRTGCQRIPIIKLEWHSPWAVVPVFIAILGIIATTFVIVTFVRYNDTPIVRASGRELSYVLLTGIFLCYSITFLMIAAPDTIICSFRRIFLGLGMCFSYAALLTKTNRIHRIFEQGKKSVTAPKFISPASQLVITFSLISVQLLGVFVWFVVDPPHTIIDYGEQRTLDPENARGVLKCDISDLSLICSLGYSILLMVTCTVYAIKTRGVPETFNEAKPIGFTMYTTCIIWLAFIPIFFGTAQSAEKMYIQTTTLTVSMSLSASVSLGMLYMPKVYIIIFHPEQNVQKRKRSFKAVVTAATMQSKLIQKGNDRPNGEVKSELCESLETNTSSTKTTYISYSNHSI
row,SMILES,z-score
1,CSCc1c(C(=O)Nc2ccc(N3CCOCC3)cc2)oc2ccccc12,-0.222
2,COc1ccc2cnn(-c3ccccc3)c(=O)c2c1OC,-0.29
3,Cc1nc2ncnn2c(C)c1CCC(=O)N1CCCCC1,-0.091
4,Cc1ccc(-n2nnc3c(=O)n(CC(=O)c4ccccc4)cnc32)cc1,-0.154
5,O=C(O)CSc1cccc2cccnc12,-0.347 and 0.372
6,COCc1nnc(NC(=O)c2ccc(NC(C)=O)cc2)s1,-0.204
7,Cc1ccc(S(=O)(=O)NNC(=O)CCC(=O)Nc2ccccc2)cc1,-0.0614
8,Cc1cccc(NC(=S)NNC(=O)c2ccccc2OC(F)F)c1,0.375
9,Cc1cc(Cl)ccc1Oc1ccc(C(N)=O)cc1[N+](=O)[O-],1.77
10,Clc1ccc(OCc2nnc(SCc3nnc(-c4ccccc4)o3)o2)c(Cl)c1,0.506
11,Cc1occc1C(=O)Nc1cccc2ccccc12,-0.0476
12,COc1ccccc1C(=O)N1CCN(CCc2ccccc2)CC1,0.953
13,Cc1ccc(NC(=O)N(CCCN2CCOCC2)Cc2cc3cc4c(cc3[nH]c2=O)OCO4)cc1,-1.12
14,CCOc1ccc(N2C(=O)CC(N(O)c3ccccc3)C2=O)cc1 (centres undefined),-0.458
15,Cc1ccc2c(COn3nnc4ccc(S(=O)(=O)N(C)C)cc43)cc(=O)oc2c1C,-0.158
16,CN=C1S/C(=C\c2ccc(N3CCOCC3)c(F)c2)C(=O)N1C,-0.309
17,CS(=O)(=O)N1CCN(c2ccc(NC(=O)c3cccnc3Cl)cc2)CC1,0.393
18,CN(CCCNC(=O)C1CCC(=O)N1Cc1ccc(F)cc1)c1ccccc1 (centres undefined),0.152
19,CN(Cc1cn(C)c2ccccc12)C(=S)Nc1cc(F)cc(F)c1,-0.166
20,Cc1ccc(NC(=O)CSc2nnc(-c3cccs3)n2Cc2ccco2)cc1,-0.426
21,Cc1cc(NC(=O)CN2CCN(c3ncccn3)CC2)no1,-0.518
22,CCOn1c(-n2nc(C)cc2C)nc2ccccc2c1=O,0.0226

row,SMILES,z-score
1,Cc1ccc(N2CC(C(=O)Nc3ccccc3C(=O)NC3CCCCC3)CC2=O)cc1 (centres undefined),0.0674
2,COc1ccc(/C=C2\C(=O)N(c3c(Cl)cc(Cl)cc3Cl)N=C2NC(=O)c2cccc([N+](=O)[O-])c2)cc1,-0.0535
3,O=C(NCc1ccc(F)cc1)C(c1ccccc1)N(CC1CCCO1)C(=O)Cn1nnc2ccccc21 (centres undefined),-0.209
4,Cc1cccc(S(=O)(=O)Nc2ccc(-c3nc4ccc(C)cc4s3)cc2)c1,-0.124
5,O=C(COc1cccc2ccccc12)N1c2ccccc2CCc2ccccc21,-0.388
6,COCc1nnc(SCC(=O)NC(C)c2ccccc2)n1-c1ccccc1 (centres undefined),-0.0891
7,COCCCNC(CC(=O)Nc1ccc(OC)cc1OC)C(=O)O (centres undefined),-0.539
8,CCC1CCCCN1CC(=O)c1c(C)[nH]c2ccccc12 (centres undefined),-0.699
9,COc1ccc(C=NCCCN2CCOCC2)cc1,-0.291
10,Cc1cc(C)cc(OCC(=O)NNC(=O)CCN2C(=O)c3ccccc3C2=O)c1,0.453
11,CCOC(=O)C1CC=C(Cl)CC1C(=O)Nc1nccs1 (centres undefined),-0.559
12,O=C(CSc1nnc(-c2ccc3c(c2)OCCO3)o1)NC1CCCCC1,0.359
13,Cc1cccc(OCCSc2nnc(-c3ccoc3C)n2C)c1,0.76
14,O=C(NC1(C(F)(F)F)C(=O)Nc2c1c(=O)[nH]c(=O)n2-c1ccccc1)c1ccncc1 (centres undefined),-0.25
15,COc1ccc(Cl)c(NC(=O)NCCN2CCN(c3ccccc3)CC2)c1,-0.297
16,Cc1[nH]n2c(=O)c3c(nc2c1-c1cccc2ccccc12)CCC3,-0.799
17,COc1ccc(Sc2nnc(-c3ccccc3)cc2C#N)cc1,0.0597
18,COc1cccc(NC(=O)C2CCN(S(C)(=O)=O)CC2)c1,-0.527
19,CC(C)N(C(=O)CSc1nnc(NC(=O)c2cccs2)s1)C(C)C,1.02
20,Cc1ccc(C(=O)NCC(=O)OCC(=O)c2ccc(C)c([N+](=O)[O-])c2)cc1,-0.163
21,COCC(=O)NNS(=O)(=O)c1ccccc1[N+](=O)[O-],0.0257
22,Cc1ccc2oc(-c3ccc(C)c(NC(=S)NC(=O)c4cccs4)c3)nc2c1,0.703

row,SMILES,z-score
1,Cc1ccc(/C(O)=C2/C(=O)C(=O)OC2c2ccc(Cl)cc2)cc1 (centres undefined),-0.593
2,CCOc1ccc(NC(=O)NCC2CCN(c3ccc(OC)cc3)C2)cc1 (centres undefined),0.627
3,CC(=O)c1nn(-c2ccc(Br)cc2)cc1C(=O)c1ccccc1,-0.317
4,Cc1ccc(/C=C/C(=O)c2ccccc2)cc1,0.0466
5,O=[N+]([O-])c1ccc(/C=N/NC(=S)Nc2ccccc2)o1,2.92
6,O=C(NCCCN1CCN(c2ccccc2F)CC1)C1CCCN(S(=O)(=O)c2cnc[nH]2)C1 (centres undefined),0.548
7,Cc1ccc(C(=O)CSc2nnc3c4ccccc4nc(Cc4ccccc4)n23)cc1,-0.447
8,COc1ccc(C(NC(=O)c2cccnc2)c2cc(Cl)c3cccnc3c2O)cc1OC (centres undefined),0.0276
9,O=C1CC(c2cccc(Cl)c2)C(n2cncn2)C(=O)C1C1NCCc2ccccc21 (centres undefined),0.0747
10,CCC1CCCCN1c1nc(-c2ccncc2)nc2ccccc12 (centres undefined),-0.323
11,CC(C)c1ccc(/C=C2\CC/C(=C\C=N\N(C)C)C2=O)cc1,-0.6
12,O=C(CSCc1ccc(F)cc1)Nc1ccccc1,0.0848
13,O=C(CCS(=O)(=O)c1ccc(Br)cc1)N1CCN(c2ccc(Cl)cc2)CC1,-0.00875
14,O=C(NCc1ccc(OC(F)(F)F)cc1)C12CN(Cc3ccccc3)CC1C(c1cccc([N+](=O)[O-])c1)=NO2 (centres undefined),-0.0978
15,Cc1ccc(-c2csc(NC(=O)CCCc3cccs3)n2)cc1,-0.208
16,COc1ccc(CCn2nnnc2C(c2ccccc2)N2CCN(C)CC2)cc1OC (centres undefined),0.996
17,CCOC(=O)Oc1ccc2c(=O)c(Oc3cccc(C)c3)coc2c1,-0.318
18,Cc1ccc2[nH]c3c(=O)n(CCc4cnc[nH]4)cnc3c2c1,-0.0642
19,O=c1c(Cc2ccc(Cl)cc2)c(O)ccn1Cc1cccc(Cl)c1,-0.22
20,Cn1c(=O)c2cc(S(=O)(=O)NC(C(=O)N3CCCCCC3)c3ccccc3)ccc2n(C)c1=O (centres undefined),-0.0184
21,O=C(NCCN1CCCCCC1)c1ccc(N2CCCC2=O)cc1,0.102
22,Clc1ccc(CNC2CCCC2)c(Cl)c1,0.236

row,SMILES,z-score
1,Cc1ccc(S(=O)(=O)c2nc(S(=O)(=O)c3ccc(C)cc3)c(NCc3ccco3)s2)cc1,-0.358
2,CCOC(=O)Cc1ccc(NC(=O)c2ccc(C(C)(C)C)cc2)cc1,0.848
3,Cc1cccc(N(CC(=O)Nc2ccc(-c3nc4ccc(C)cc4s3)cc2)S(C)(=O)=O)c1,0.0587
4,O=C(CC1C(=O)N(c2ccccc2)C(=O)N1C1CCCCC1)Nc1ccccc1 (centres undefined),-0.204
5,O=C(CSc1nc2cccnc2n1Cc1ccccc1)N1CCc2ccccc21,-0.1
6,Cc1sc2ncn(CCn3cnc4sc(C)c(C)c4c3=O)c(=O)c2c1C,0.424
7,O=S(=O)(c1ccccc1)N1CCN(S(=O)(=O)N2CCCCC2)CC1,-0.0844
8,COc1ccc(C(=O)C[n+]2ccc3c(c2)nc(-c2ccc(OC)cc2OC)n3C)cc1,-0.248
9,CCN(CC)S(=O)(=O)c1ccc(F)cc1,-0.195
10,COC(=O)c1cc(NC(=O)c2c(Cl)nc3sccn23)cc(C(=O)OC)c1,-0.189
11,CSc1c(CC(=O)NCCO)n(C)c2ccccc12,0.0473
12,COCCOc1ccc(C(F)(F)F)cc1NC(=O)c1ccccc1,0.179
13,O=C(COc1ccccc1)Nc1ccc(S(=O)(=O)N2CCCC2)cc1,-0.354
14,CCS(=O)(=O)N1CCCC(C(=O)NC2CCCCC2C)C1 (centres undefined),0.637
15,Cc1sc(NC(=S)NC(=O)C(C)(C)C)c(C(N)=O)c1C,-0.0974
16,O=C1[C@@H]2[C@@H]3C[C@@H]([C@H]4ON=C(c5ccc(Cl)cc5)[C@@H]34)[C@@H]2C(=O)N1c1ccc2c(c1)OCO2,0.168
17,CCc1nc(C)ccc1OCC(=O)O,-0.972
18,O=C(NCCN1C(=O)C2C3C=CC(C3)C2C1=O)N1CCOCC1 (centres undefined),-0.146
19,CCOc1ccc(N2CC(C(=O)Nc3ccccc3N3CCOCC3)CC2=O)cc1 (centres undefined),-0.169
20,Cc1cc(C)c2c(c1)OC(O)(C(F)F)CC2=O (centres undefined),-0.115
21,CCCCc1ccc(NC(=S)NCc2cccs2)cc1,1.5
22,O=C(c1cn(-c2ccccc2)nc1-c1ccc(Cl)cc1)N1CCOCC1,-0.177

row,SMILES,z-score
1,Cc1cccc(N(C(=O)c2ccc(CN3CCOCC3)o2)C(C(=O)NC(C)(C)C)c2ccc(F)cc2)c1 (centres undefined),-0.312
2,O=C(Nc1ccccc1C(=O)N1CCNCC1)c1ccco1,-0.0845
3,CCC(=O)c1ccc(N2CCN(C(=O)c3ccc(Br)cc3)CC2)c(F)c1,0.654
4,O=C(N/N=C/C=C\c1ccccc1[N+](=O)[O-])c1cc(-c2ccc3ccccc3c2)n[nH]1,0.00824
5,OC(COc1cccc(OCC(O)CN2CCCC2)c1)CN1CCCC1 (centres undefined),-0.0758
6,CCOC(=O)c1c(Cc2cccc(Cl)c2)c[nH]c1C,-0.0958
7,COc1ccccc1C1C2=C(CC(C)(C)CC2=O)Nc2nnnn21 (centres undefined),-1.1
8,COc1ccccc1CC(=O)O/N=C(\N)Cc1cccc2ccccc12,-0.241
9,Cc1ccccc1NC(=O)CSc1nnc(-c2ccco2)c(-c2ccco2)n1,-0.301
10,O=C(O)C1CSC2(CCN(Cc3ccccc3)CC2)N1 (centres undefined),-0.0401
11,O=C(NC1CC1)c1cccc(Br)c1,-0.408
12,c1csc(CNc2ccc3c(c2)OCCO3)c1,-0.264
13,Cn1c(SCCC(=O)O)nnc1-c1ccncc1,0.356
14,COc1ccc(CCN(Cc2cc3cc(C)c(C)cc3nc2Cl)C(=O)C2CC2)cc1,0.0611
15,CCc1c(C(=O)NCCc2ccc(OC)c(OC)c2)[nH]c(C)c1C(C)=O,-0.963
16,COc1ccc(N2CCN(S(=O)(=O)/C=C/c3ccccc3)CC2)cc1,-0.057
17,Cc1ccc(S(=O)(=O)NCCSc2nnnn2C)cc1,0.945
18,O=C(NCC1CCCO1)C(c1cccs1)N(Cc1cccs1)C(=O)c1ccc(-c2ccccc2)[nH]1 (centres undefined),-0.486
19,O=c1c2c3c(sc2nc(NCCO)n1CCc1ccccc1)CCCCC3,0.773
20,CCOC(=O)Cc1csc(NC(=O)CCN2C(=O)c3ccccc3C2=O)n1,0.0459
21,Nc1cc(C(=O)O)ccc1N1CCCCC1,0.666
